PubChem BioAssay AID1347165 (National Center for Advancing Translational Sciences (NCATS), 2019)
Values joined by “and” are separate entries in the source; they are usually repeats but may differ in a detail not shown here. Equal entries are not always repeated. Out of some 220,000 compounds screened, about 5,700 (2.6%) were called active. The inconclusive results got no clear call from the source; some entries with a clear call stand among them for comparison. Calls follow the shape of the dose curve; as a rule, active = well fitted inhibition curve with a large enough effect; inconclusive = small, poorly fitted or top-dose-only effect; inactive = no such curve, though single readings can be large or run the other way. Potencies of inconclusive entries are doubtful fits and often do not repeat.
Also: nearly all actives have a fitted effect of over 70% in size.
For activity change, negative = inhibition in this document: 0% is about no effect.
Potency is read from the fitted curve at half-maximal effect; tags tell the direction and shape of the fitted curve.

Each compound was assayed against Lysine-specific demethylase 5B (Homo sapiens) (UniProt Q9UGL1) (assay: Primary screen for KDM5B Histone Demethylases FDH-coupled qHTS). Conditions: FDH-coupled NADH fluorescence (FDH is formaldehyde dehydrogenase); activity change, negative = inhibition: at 57.7 µM (top of the series) unless noted.
Chain of UniProt Q9UGL1 (Q9UGL1 whole entry, looked up): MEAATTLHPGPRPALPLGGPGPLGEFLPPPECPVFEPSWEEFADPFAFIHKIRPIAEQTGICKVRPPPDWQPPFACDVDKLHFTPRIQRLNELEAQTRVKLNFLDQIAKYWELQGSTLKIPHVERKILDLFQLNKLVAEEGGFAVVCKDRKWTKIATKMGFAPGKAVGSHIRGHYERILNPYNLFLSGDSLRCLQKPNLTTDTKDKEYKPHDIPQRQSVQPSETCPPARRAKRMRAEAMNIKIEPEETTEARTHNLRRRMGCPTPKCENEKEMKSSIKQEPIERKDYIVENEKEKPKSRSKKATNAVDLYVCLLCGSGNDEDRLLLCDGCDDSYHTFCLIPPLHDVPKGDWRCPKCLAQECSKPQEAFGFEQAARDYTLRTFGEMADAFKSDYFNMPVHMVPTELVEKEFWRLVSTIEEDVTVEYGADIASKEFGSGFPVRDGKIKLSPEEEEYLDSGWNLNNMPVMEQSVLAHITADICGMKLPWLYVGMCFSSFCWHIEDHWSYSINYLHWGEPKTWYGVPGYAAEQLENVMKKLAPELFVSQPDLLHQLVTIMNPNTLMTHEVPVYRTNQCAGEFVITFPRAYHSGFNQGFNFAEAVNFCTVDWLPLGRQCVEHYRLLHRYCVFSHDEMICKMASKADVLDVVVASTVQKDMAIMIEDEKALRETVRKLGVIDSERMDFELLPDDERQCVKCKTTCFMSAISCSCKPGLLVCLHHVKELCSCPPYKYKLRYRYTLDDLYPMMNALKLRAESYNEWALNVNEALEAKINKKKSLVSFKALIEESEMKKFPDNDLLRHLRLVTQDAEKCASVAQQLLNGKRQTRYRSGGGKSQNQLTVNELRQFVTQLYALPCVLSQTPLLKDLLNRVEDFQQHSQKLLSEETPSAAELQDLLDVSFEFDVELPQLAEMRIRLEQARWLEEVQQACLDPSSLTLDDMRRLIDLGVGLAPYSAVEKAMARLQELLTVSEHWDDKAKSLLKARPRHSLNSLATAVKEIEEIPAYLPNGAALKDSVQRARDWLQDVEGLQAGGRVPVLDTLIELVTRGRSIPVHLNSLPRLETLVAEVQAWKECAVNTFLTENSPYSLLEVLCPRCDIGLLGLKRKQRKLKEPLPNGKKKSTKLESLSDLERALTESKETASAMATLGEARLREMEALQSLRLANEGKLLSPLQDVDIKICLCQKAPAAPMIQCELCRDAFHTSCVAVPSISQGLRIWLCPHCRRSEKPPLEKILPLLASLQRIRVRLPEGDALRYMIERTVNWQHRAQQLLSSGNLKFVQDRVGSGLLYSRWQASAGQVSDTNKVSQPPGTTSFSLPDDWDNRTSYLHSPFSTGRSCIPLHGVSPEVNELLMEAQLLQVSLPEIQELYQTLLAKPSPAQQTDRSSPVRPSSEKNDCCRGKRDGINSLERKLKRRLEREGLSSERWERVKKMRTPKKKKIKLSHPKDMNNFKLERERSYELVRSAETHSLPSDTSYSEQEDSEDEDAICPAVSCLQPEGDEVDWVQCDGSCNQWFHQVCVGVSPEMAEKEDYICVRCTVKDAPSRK
In short: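 qHTS format, multiple compound concentrations. Buffer 50 mM HEPES pH 7.5/0.01% Tween-20; 200 nM KDM5BΔAP final; 10 min compound preincubation; substrate-mix levels 12.5 µM peptide, 25 µM α-KG, 0.25 mM NAD⁺; 30 min RT; ΔRFU.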
For `CCOCCn1c(=O)[nH]c2cc(C(=O)NCc3noc(CC)n3)ccc21`, the Potency was inconclusive: 28.2 µM [inhibitor, partial curve, poor fit]. With `COc1cc(C)c(S(=O)(=O)Nc2ccc(Nc3cc(N4CCCC4)nc(C)n3)cc2)cc1C` the Potency was “inactive”. In the case of `COCCCNc1nc2ccccc2nc1NS(=O)(=O)c1ccc(OC)cc1`, the Potency is reported as inconclusive: 4.47 µM [inhibitor, full curve, poor fit]. For `COCc1nc(C2CC(N)C2)cc(N2CCc3[nH]nc(C(=O)OC)c3C2)n1` (stereo unspecified), the Potency was inconclusive: 12.6 µM [inhibitor, partial curve, poor fit]. With `Cc1nc2ccccc2n1Cc1cn([C@@H]2CN[C@H](C(=O)O)C2)nn1` the Potency was inconclusive: 3.55 µM [inhibitor, partial curve, poor fit]. With `COc1ccc(-n2c(SCc3ccccc3)nc3c([nH]c4ccccc43)c2=O)cc1` the Potency was “inactive”. For `CN(C)c1cccc(C(=O)Nc2ccc(-c3nnc4n3CCCC4)cc2)c1`, the Potency was inconclusive: 31.6 µM [inhibitor, partial curve, poor fit]. `NS(=O)(=O)c1cccc(NC(=O)CSc2ncnc3ccccc23)c1` was tested, and the Potency was inconclusive: 14.1 µM [inhibitor, partial curve, poor fit]. For `CC(=O)N1CC[C@H](c2nc3ccc(C#N)cc3[nH]2)C1`, the Potency was inconclusive: 35.5 µM [inhibitor, partial curve, poor fit]. `O=C1NCCCCCCN(Cc2ccncc2)[C@@H]2CN(C(=O)Nc3ccccc3)CC[C@H]12` was tested, and the Potency was inconclusive: 25.1 µM [inhibitor, single point]. In the case of `CN1CCC([C@@H]2CN(S(=O)(=O)c3cccc(C#N)c3)C[C@H]2C(N)=O)CC1`, the Potency is reported as “inactive”. `Cc1nn(CCC(=O)Nc2c(Cl)cccc2Cl)c(=O)c(C#N)c1C` was tested, and the Potency was inconclusive: 28.2 µM [inhibitor, single point]. With `Cc1ccc2nc(NCc3ccc(F)cc3)c(-n3nc(C)cc3C)nc2c1` the Potency was inconclusive: 22.4 µM [inhibitor, partial curve, poor fit]. `COc1cccc(CNC(=O)CCc2c(C)c3ccc(O)c(C)c3oc2=O)c1` was tested, and the Potency was inconclusive: 28.2 µM [inhibitor, partial curve, poor fit]. With `CCOC(=O)c1noc2ncn(CC(=O)Nc3ccccc3OC)c(=O)c12` the activity change, negative = inhibition was inconclusive: -36.5% [inhibitor]. `CCCCN(CC)CCCNC(=O)c1ccc2c(c1)NC(=O)CN2C` was tested, and the Potency was inconclusive: 25.1 µM [inhibitor, partial curve, poor fit]. For `CCCCn1c(=O)[nH]c(=O)c2c1nc(COC(=O)/C=C/c1cc(Cl)c(OC)c(OCC)c1)n2C`, the Potency was “inactive”. For `O=C(NCC1CCCO1)c1cc(-c2ccccc2)nc2ccccc12` (stereo unspecified), the Potency was inconclusive: 28.2 µM [inhibitor, single point]. For `Cc1cccc(CC(=O)N2CCc3c(nc4cc[nH]n4c3=O)C2)c1`, the Potency was active: 31.6 µM. For `Cc1noc(C)c1-c1cc2c(c(-c3cccc(OC(C)C)c3)c1)C(=O)N(C)C2`, the Potency was inconclusive: 50.1 µM [inhibitor, single point]. In the case of `COc1ccccc1C(=O)NCc1nnc2c(-c3nc(C(C)C)no3)cccn12`, the Potency is reported as inconclusive: 22.4 µM [inhibitor, single point]. `Cc1ccccc1-c1nnc(-c2cccs2)o1` was tested, and the Potency was inconclusive: 31.6 µM [inhibitor, partial curve, poor fit]. `Cc1ccc2nc(NCC(=O)O)nc(-c3ccccc3)c2c1` was tested, and the Potency was inconclusive: 11.2 µM [inhibitor, partial curve, poor fit]. With `NC(=O)COC[C@@H]1CN(Cc2ccccc2)C[C@H]1c1ccncc1` the Potency was inconclusive: 17.8 µM [inhibitor, partial curve, poor fit]. In the case of `O=C(Nc1cccc2ccccc12)N[C@H]1CO[C@H]2[C@@H]1OC[C@@H]2n1nnnc1-c1ccc2c(c1)OCO2`, the Potency is reported as inconclusive: 31.6 µM [inhibitor, partial curve, poor fit]. For `Cc1c(C)n(CCCN(C)C)c2ncn3nc(-c4cccs4)nc3c12`, the Potency was inconclusive: 14.1 µM [inhibitor, partial curve, poor fit]. For `Cc1cc(N2CCC(c3nccn3Cc3ccccn3)CC2)nc2ccccc12`, the Potency was active: 31.6 µM. In the case of `O=C(NC1CCCN(CCc2ccccc2)C1)C1(Cn2cccn2)CC1` (stereo unspecified), the Potency is reported as “inactive”. `COc1ccc2c(c1)-c1nc(NC(=O)c3cc(OC)c(OC)c(OC)c3)sc1CC2` was tested, and the Potency was inconclusive: 31.6 µM [inhibitor, partial curve, poor fit]. For `O=c1c2nc(-c3ccoc3)ccc2ncn1Cc1ccccc1`, the Potency was inconclusive: 35.5 µM [inhibitor, partial curve, poor fit]. With `CCOc1cc(/C=C2\CN(CC)C/C(=C\c3ccc(O)c(OCC)c3)C2=O)ccc1O` the Potency was inconclusive: 17.8 µM [inhibitor, partial curve, poor fit]. For `Cc1nc(CN2CC3(CCN(C)C3)c3cc(C(=O)NCC4CC4)ccc32)cs1` (stereo unspecified), the Potency was active: 28.2 µM. For `CCOc1ccccc1C(=O)N1CCC2(CC1)NC(=O)N(c1ccccc1)N2`, the Potency was inconclusive: 15.8 µM [inhibitor, partial curve]. `CCN1c2cc(C(=O)N3CCN(c4ccccn4)CC3)ccc2C(=O)N2CCCCC21` (stereo unspecified) was tested, and the Potency was inconclusive: 28.2 µM [inhibitor, partial curve, poor fit]. With `CCOC(=O)c1c(NC(=O)c2ccc(F)cc2)sc2c1CCC(CC)C2` (stereo unspecified) the Potency was inconclusive: 1.12 µM [inhibitor, full curve, poor fit]. For `O=C(Nc1ccccn1)c1cc(-c2ccncc2)nc2ccccc12`, the Potency was “inactive”. For `COc1ccc(C(=O)c2sc(Nc3c(C)cccc3C)nc2N)cc1OC`, the Potency was “inactive”. With `COc1ccc2nc(C(=O)NC(C3CC3)C3CC3)ccc2c1` the Potency was inconclusive: 22.4 µM [inhibitor, partial curve, poor fit]. In the case of `c1ccc(Sc2c(-c3ccccc3)cc3ccccn23)cc1`, the Potency is reported as “inactive”. With `COc1ccc(C2=CC(c3ccc(Cl)cc3)n3nnnc3N2)c(OC)c1` (stereo unspecified) the Potency was “inactive”. `Cc1ccccc1NC(=O)CSC1CCCC1` was tested, and the Potency was “inactive”. For `CC(C)=CC1C(C(=O)NCC(C)(C)C(N)=O)C1(C)C` (stereo unspecified), the Potency was “inactive”. With `Cc1cccnc1CNC[C@H]1Cn2cc(-c3ccccc3)nc2CO1` the Potency was inconclusive: 28.2 µM [inhibitor, partial curve, poor fit]. `CCCOc1nccnc1NC1CCN(C(=O)NCC)CC1` was tested, and the Potency was active: 28.2 µM. With `COc1ccc2[nH]c(=O)c(CN(C)C(=O)c3cccs3)cc2c1` the Potency was inconclusive: 22.4 µM [inhibitor, partial curve, poor fit]. In the case of `Cc1cccc(C(=O)N2CCCC(c3nc(C4CCOCC4)no3)C2)c1` (stereo unspecified), the Potency is reported as “inactive”. In the case of `CC1(C)CC(=O)C2=C(C1)NC(=O)C(C#N)C2c1ccccc1` (stereo unspecified), the Potency is reported as “inactive”. In the case of `Cc1cn2c(=O)cc(COc3ccc(NC(=O)COc4ccccc4)cc3)nc2s1`, the Potency is reported as inconclusive: 1.58 µM [inhibitor, full curve, poor fit]. With `O=C(Nc1ccnn1Cc1ccccn1)c1cccc(S(=O)(=O)N2CCCC2)c1` the Potency was “inactive”. With `COc1ccc(C2CC(=O)N(CC(=O)Nc3ccc(C)c(Cl)c3)c3ccccc3S2)cc1OC` (stereo unspecified) the Potency was inconclusive: 31.6 µM [inhibitor, single point] and inconclusive: 39.8 µM [inhibitor, single point]. With `CCn1cc(C(=O)n2nc(C)cc2C)c(S(=O)(=O)N2CCN(c3cccc(Cl)c3)CC2)n1` the Potency was “inactive”. With `CCOC(=O)C1CCCN(S(=O)(=O)c2ccc3c(c2)oc(=O)n3C)C1` (stereo unspecified) the Potency was inconclusive: 2 µM [inhibitor, partial curve, poor fit]. For `COc1ccc(N(Cc2cccs2)C(=O)Nc2cccc(Cl)c2)cc1`, the Potency was inconclusive: 1 µM [inhibitor, partial curve, poor fit]. `COc1ccc(-c2nc3c(c(=O)[nH]2)CCN(C(=O)CSc2ccccc2)C3)cc1` was tested, and the Potency was inconclusive: 35.5 µM [inhibitor, single point]. With `Cc1ccccc1C(=O)NCCc1sc(-c2ccc(Cl)cc2)nc1C` the Potency was inconclusive: 5.01 µM [inhibitor, partial curve, poor fit]. `CC(C)c1noc(-c2cn(C3CCN(C(=O)c4cccc(Cl)c4)C3)nn2)n1` (stereo unspecified) was tested, and the Potency was “inactive”. For `COc1ncccc1-c1ccc2onc(C)c2n1`, the Potency was inconclusive: 8.91 µM [inhibitor, full curve]. For `O=C(Nc1cccc2ccccc12)C1CCCCC1`, the Potency was “inactive”. `O=C(NCC1CC1)C1CN(Cc2ccccc2)C(=O)N1` (stereo unspecified) was tested, and the Potency was “inactive”. For `Cc1ccc2c(c1)cc(C(=O)NCCN(C)C)n2C`, the Potency was inconclusive: 28.2 µM [inhibitor, partial curve, poor fit]. `Cc1ccc2nc([C@H]3CCN(Cc4ccc(S(C)(=O)=O)cc4)C3)[nH]c2c1` was tested, and the Potency was inconclusive: 31.6 µM [inhibitor, single point]. For `Cc1cc(C(=O)N[C@H]2CCOC[C@H]2C2CCOCC2)ccc1N1CCOCC1`, the Potency was “inactive”. For `COc1ccc(CNC(=O)c2cnc3sc(N4CCCC4)nn3c2=O)c(OC)c1`, the Potency was inconclusive: 2.24 µM [inhibitor, full curve, poor fit]. With `CS(=O)(=O)c1ccc(NC(=O)c2cccc(S(=O)(=O)N3CCN(Cc4ccccc4)CC3)c2)cc1` the Potency was inconclusive: 39.8 µM [inhibitor, single point]. In the case of `CC(C)N1CCC[C@H]1c1nc(-c2ccc(N3CCN(C)CC3)nc2)no1`, the Potency is reported as inconclusive: 31.6 µM [inhibitor, single point]. For `COc1ccc(-c2nc3ncccc3[nH]2)cc1`, the Potency was inconclusive: 141 µM [inhibitor, partial curve, poor fit] and active: 31.6 µM.
